Results reported in US20250044294A1, “COMPOSITION AND METHOD OF TREATING A CANCER THROUGH AFFECTING MEMBRANE RECEPTORS OF CANCER CELLS AND THEIR DERIVED EXTRACELLULAR VESICLES” (National Yang Ming Chiao Tung University, priority 2023, published 2025).
Read-outs that look alike come from different tables or passages of the source.

Columns and labels:
[1] = tested on: EGFR downstream signaling pathways
[2] = molecular target: EGFR-HER3 protein-protein interactions (Homo sapiens, UniProt P00533+P21860)
[3] = SAS and HSC3, post-treatment 15 μM 30 min after EGF 10 ng/ml 15 min

EGFR-HER3 protein-protein interactions ([2]; HSC3, PCP alone, pre-treatment and post-treatment) | SMILES | EGFR downstream protein expression levels ([1]; HSC3, SAS, FaDu, 5, 10, 15 μM 30 min, then EGF 10 ng/ml 15 min) | PI3K/AKT downstream protein expression levels ([1]; HSC3, pre-treatment 15 μM 30 min, then EGF 10 ng/ml 15 min) | AKT activation [1, 3] | EGFR activation [1, 3] | activation of EGFR downstream proteins ([1]; SAS and HSC3, pre-treatment 15 μM 30 min, then EGF 10 ng/ml 15 min) | EGFR-HER3 protein-protein interactions ([2]; HSC3 and SAS, pre-treatment 15 μM 30 min, then EGF 10 ng/mL 15 min) | extent of inhibition on AKT activation compared with PCP ([1]; HSC3) | expressions of p-EGFR/EGFR, p-AKT/AKT, and p-ERK/ERK ([1]; HSC3, 10, 15 μM 30 min, EGF 10 ng/mL)
effectively inhibited | CN1CCN(CCCN2c3ccccc3Sc3ccc(Cl)cc32)CC1 [PCP, Prochlorperazine] | suppressed EGFR downstream protein expression levels | effectively suppressed | did inhibit AKT activation | did not impede EGFR activation | effectively inhibited | could suppress EGFR-HER3 protein-protein interactions |  | 
 | CSc1ccc2c(c1)N(CCC1CCCCN1C)c1ccccc1S2 (stereo not drawn) [THD, Thioridazine] |  |  |  |  |  |  | not as potent as that observed with PCP | could suppress
